Results are given in words; binding and its absence hold for the method and conditions named. Some results given as binding are weak or reduced against the parent protein; the word gives no strength.
Assays:
[1] = target: mCherry-LacR-NLS-VP16 (herpes simplex virus (HSV)) (UniProt P06492); assay: recruitment to a LacO array by a LacR fusion (confocal fluorescence microscopy); A03-1 cells (256xLacO arrays) co-transfected with an mCherry-LacR fusion, held on the array, and a GFP- or YFP-tagged protein; green fluorescence overlapping with the red array scored; more than 20 cells in each combination, three independent experiments
[2] = target: mCherry-LacR-LANA1 (p3xFLAG-CMV10-mCherry-LacR-LANA1) (Human herpesvirus 8 (KSHV)) (UniProt E5LC01); assay: as above

Protein sequences, listed by entry. Tags and fused reporters are not part of them.
UniProt P06492: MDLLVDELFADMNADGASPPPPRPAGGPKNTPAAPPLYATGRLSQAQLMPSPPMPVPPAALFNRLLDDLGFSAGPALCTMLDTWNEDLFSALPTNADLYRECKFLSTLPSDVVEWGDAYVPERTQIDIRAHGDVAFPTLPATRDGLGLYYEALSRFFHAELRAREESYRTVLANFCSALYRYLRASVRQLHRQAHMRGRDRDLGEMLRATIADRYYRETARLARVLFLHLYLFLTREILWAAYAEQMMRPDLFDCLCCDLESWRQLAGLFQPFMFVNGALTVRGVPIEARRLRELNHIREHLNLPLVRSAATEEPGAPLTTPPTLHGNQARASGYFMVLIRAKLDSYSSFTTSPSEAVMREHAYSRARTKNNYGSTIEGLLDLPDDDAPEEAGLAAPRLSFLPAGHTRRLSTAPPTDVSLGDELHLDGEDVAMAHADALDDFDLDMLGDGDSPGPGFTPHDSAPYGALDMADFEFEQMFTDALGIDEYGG
UniProt Q14839: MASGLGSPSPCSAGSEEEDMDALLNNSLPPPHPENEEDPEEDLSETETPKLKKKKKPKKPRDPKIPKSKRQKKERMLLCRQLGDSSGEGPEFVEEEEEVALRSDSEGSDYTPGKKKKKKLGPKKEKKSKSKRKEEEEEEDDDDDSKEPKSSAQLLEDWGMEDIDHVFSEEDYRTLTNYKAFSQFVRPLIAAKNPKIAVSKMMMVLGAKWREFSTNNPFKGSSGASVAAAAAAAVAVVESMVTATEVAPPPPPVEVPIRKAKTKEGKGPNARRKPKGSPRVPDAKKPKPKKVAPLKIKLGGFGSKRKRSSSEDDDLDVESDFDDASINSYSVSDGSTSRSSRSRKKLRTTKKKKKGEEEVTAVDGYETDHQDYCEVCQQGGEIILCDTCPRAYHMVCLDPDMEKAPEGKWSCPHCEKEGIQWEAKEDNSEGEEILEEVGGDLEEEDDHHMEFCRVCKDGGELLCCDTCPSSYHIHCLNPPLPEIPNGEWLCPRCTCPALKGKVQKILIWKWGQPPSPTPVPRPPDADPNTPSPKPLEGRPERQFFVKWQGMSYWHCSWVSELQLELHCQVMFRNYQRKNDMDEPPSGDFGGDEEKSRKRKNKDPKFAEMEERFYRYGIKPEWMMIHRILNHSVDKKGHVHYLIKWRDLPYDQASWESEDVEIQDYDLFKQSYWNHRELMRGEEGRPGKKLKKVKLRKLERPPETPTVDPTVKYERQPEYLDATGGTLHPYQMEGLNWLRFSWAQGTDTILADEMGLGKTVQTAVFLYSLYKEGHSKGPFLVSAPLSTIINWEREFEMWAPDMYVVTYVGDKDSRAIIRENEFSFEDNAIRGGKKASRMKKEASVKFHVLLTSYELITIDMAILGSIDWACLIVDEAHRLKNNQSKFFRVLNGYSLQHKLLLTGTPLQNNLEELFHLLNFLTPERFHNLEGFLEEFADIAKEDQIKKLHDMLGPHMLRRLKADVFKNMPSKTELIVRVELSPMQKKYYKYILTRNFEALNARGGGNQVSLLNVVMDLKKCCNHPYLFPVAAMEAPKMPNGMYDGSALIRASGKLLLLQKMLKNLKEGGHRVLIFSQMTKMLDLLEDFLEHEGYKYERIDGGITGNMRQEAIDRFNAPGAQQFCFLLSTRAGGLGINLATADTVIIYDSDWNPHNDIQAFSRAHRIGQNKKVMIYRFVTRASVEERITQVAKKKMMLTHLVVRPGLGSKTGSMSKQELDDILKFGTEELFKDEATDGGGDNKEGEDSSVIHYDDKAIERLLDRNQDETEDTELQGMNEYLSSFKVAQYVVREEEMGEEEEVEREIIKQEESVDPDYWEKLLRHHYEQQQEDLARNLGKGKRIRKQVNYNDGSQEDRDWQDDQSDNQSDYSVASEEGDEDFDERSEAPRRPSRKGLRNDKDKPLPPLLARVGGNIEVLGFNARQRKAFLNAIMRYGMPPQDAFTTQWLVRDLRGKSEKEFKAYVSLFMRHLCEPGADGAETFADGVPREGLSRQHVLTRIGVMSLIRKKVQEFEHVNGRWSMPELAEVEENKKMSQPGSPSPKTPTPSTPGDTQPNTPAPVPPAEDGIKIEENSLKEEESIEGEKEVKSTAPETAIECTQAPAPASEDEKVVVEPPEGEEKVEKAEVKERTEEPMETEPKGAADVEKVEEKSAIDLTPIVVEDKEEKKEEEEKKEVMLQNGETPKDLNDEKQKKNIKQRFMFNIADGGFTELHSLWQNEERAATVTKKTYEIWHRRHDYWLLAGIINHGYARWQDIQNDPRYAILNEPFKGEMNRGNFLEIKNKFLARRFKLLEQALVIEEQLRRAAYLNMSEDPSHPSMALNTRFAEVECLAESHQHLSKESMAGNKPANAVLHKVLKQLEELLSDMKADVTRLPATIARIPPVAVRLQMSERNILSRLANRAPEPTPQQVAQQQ
UniProt O60264: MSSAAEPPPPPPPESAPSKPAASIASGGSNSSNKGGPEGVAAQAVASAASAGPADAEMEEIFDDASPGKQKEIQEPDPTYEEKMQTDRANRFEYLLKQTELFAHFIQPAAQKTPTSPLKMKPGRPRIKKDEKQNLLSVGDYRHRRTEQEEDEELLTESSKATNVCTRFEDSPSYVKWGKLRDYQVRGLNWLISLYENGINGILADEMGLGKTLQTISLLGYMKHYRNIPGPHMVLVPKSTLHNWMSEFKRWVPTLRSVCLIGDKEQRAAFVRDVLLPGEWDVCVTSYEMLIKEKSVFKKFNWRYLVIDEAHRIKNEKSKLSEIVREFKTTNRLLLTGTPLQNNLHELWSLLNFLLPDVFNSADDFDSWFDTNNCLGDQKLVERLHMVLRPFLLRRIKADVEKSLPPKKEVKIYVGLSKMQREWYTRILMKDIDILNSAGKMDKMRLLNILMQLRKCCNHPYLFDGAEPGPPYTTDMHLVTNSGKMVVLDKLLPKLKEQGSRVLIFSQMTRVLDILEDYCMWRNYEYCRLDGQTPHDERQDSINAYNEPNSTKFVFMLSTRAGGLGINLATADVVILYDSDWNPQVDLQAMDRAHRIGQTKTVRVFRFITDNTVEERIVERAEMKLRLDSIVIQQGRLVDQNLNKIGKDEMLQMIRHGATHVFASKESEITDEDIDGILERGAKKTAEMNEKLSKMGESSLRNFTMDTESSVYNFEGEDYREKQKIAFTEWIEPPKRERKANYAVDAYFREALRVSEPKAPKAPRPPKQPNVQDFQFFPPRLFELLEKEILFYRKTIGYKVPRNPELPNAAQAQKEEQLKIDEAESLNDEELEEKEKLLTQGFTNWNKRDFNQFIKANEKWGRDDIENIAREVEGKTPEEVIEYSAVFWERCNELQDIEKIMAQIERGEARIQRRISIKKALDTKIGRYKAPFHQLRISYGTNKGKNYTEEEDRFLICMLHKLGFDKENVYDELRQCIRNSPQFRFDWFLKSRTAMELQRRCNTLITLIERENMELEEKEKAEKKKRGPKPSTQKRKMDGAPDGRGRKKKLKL
UniProt P51532: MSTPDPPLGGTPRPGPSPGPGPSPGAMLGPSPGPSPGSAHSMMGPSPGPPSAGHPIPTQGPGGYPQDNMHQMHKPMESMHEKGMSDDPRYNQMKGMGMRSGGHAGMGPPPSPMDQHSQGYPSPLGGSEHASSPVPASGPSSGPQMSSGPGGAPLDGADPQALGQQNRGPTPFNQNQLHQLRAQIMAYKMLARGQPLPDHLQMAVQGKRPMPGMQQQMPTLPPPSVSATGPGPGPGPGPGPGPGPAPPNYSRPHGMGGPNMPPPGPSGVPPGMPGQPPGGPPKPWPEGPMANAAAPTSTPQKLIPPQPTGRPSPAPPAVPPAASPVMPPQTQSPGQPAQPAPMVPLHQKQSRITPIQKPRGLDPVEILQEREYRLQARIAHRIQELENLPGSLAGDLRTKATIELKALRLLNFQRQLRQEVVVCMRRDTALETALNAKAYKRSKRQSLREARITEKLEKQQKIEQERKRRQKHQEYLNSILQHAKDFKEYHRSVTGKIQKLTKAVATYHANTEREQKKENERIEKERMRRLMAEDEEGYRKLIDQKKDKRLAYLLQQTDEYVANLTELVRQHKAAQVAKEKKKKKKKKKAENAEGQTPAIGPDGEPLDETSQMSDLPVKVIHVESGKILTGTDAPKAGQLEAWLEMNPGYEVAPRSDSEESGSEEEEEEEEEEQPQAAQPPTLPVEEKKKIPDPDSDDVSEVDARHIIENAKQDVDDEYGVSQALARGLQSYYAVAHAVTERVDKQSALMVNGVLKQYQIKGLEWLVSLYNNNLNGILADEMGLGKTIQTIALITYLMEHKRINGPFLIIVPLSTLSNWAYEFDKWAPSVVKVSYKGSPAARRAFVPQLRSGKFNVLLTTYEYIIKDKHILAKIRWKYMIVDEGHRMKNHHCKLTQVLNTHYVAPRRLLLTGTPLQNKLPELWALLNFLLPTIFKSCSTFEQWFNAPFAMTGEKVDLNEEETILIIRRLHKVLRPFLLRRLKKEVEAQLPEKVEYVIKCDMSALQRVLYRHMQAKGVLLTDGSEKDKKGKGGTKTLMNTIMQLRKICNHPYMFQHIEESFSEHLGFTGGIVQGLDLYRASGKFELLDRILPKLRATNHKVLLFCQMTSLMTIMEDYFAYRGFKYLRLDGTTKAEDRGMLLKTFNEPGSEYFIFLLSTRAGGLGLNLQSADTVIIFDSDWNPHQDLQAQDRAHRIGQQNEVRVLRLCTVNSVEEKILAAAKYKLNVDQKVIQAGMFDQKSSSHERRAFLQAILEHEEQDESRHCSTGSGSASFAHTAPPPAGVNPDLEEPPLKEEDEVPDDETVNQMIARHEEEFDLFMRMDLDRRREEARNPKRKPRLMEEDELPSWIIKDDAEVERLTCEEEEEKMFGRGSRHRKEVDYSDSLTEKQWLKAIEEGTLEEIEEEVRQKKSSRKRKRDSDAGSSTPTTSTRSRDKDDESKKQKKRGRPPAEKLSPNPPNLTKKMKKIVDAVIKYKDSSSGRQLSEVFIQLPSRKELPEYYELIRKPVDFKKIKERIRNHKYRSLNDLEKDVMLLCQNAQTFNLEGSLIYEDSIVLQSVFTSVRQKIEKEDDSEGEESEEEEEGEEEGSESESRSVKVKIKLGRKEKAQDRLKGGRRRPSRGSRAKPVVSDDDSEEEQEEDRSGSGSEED
UniProt P25440: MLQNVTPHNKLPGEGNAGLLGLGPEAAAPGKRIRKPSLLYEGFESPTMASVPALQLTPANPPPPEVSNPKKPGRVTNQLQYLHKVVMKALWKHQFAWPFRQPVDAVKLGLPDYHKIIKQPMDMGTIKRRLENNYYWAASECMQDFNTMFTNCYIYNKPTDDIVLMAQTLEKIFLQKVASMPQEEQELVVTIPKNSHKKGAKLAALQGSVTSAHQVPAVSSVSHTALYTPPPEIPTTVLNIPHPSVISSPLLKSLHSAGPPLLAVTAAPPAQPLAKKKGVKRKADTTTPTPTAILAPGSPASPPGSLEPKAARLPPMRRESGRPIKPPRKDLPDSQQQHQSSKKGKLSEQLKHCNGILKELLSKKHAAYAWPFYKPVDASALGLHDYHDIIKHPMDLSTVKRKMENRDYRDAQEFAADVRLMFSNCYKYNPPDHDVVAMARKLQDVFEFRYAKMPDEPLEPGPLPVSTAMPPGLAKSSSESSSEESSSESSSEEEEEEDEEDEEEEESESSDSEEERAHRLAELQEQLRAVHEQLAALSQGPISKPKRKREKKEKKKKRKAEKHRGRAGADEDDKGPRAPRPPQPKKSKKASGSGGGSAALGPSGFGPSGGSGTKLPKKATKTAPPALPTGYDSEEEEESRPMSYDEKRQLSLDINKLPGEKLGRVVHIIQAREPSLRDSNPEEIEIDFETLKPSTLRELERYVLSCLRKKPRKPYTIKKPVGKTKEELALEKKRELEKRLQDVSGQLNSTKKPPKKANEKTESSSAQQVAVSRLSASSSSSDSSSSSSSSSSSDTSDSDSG

Row | Substance | binding [1] | binding [2]
1 | YFP-tagged p300 (from UniProt Q09472 1-2414) | binds | 
2 | YFP-tagged GCN5 (from UniProt Q92830 1-837) | binds | no binding
3 | GFP-CHD4 (from UniProt Q14839 1-1912) | binds | no binding
4 | YFP-tagged pCAF (from UniProt Q92831 1-832) | binds | no binding
5 | SNF2H-GFP (from UniProt O60264 1-1052) | binds | no binding
6 | YFP-BRG1 (from UniProt P51532 1-1647) | binds | 
7 | YFP-tagged BRD2 (from UniProt P25440 1-801) | binds | binds

Source: PMC3646995
